Source: patent US11779649B2, “Antibodies to PMEL17 and conjugates thereof” (Novartis AG, priority 2018, dated 2023)

B1: G1-3J-DAR4-(B1): anti-PMEL17 antibody G1 with 3J light chain conjugated to (B1), DAR4 (conjugate)
heavy: QVQLVQSGAEVKKPGSSVKVSCKASGGTFSDYAITWVRQAPGQGLEWMGGIIPIFGTANYAQKFQGRVTITADESTSTAYMELSSLRSEDTAVYYCAREGGLLTDISYSRYWFAYWGQGTLVTVSSASTKGPSVFPLAPSSKSTSGGTAALGCLVKDYFPCPVTVSWNSGALTSGVHTFPAVLQSSGLYSLSSVVTVPSSSLGTQTYICNVNHKPSNTKVDKRV[in this place human IgG1 Fc with S375C (EU numbers)]
light: SYELTQPLSVSVALGQTARITCSGDALRDKFVYWYQQKPGQAPVLVIYDDNNRPSGIPERFSGSNSGNTATLTISRAQAGDEADYYCQSWDHSYSLVVFGGGTKLTVLGQPKAAPSVTLFPPSSEELQANKATLVCLISDFYPGAVTVAWKADSSPVKAGVETTTPSKQSNNKYAASSYLSLTPEQWKSHRSYSCQVTHEGSTVEKTVAPTECS
B2: G1-3R-DAR4-(B1): anti-PMEL17 antibody G1 with 3R light chain conjugated to (B1), DAR4 (conjugate)
heavy: QVQLVQSGAEVKKPGSSVKVSCKASGGTFSDYAITWVRQAPGQGLEWMGGIIPIFGTANYAQKFQGRVTITADESTSTAYMELSSLRSEDTAVYYCAREGGLLTDISYSRYWFAYWGQGTLVTVSSASTKGPSVFPLAPSSKSTSGGTAALGCLVKDYFPCPVTVSWNSGALTSGVHTFPAVLQSSGLYSLSSVVTVPSSSLGTQTYICNVNHKPSNTKVDKRV[in this place human IgG1 Fc with S375C (EU numbers)]
light: SYELTQPPSVSVSPGQTASITCSGDALRDKFVYWYQQKPGQSPVLVIYDDNNRPSGIPERFSGSNSGNTATLTISGTQAMDEADYYCQSWDHSYSLVVFGGGTKLTVLGQPKAAPSVTLFPPSSEELQANKATLVCLISDFYPGAVTVAWKADSSPVKAGVETTTPSKQSNNKYAASSYLSLTPEQWKSHRSYSCQVTHEGSTVEKTVAPTECS
B3: G4-(B1) (conjugate)
heavy: QVQLVQSGAEVKKPGSSVKVSCKASGGTFSTYAISWVRQAPGQGLEWMGRIIPILGIANYAQKFQGRVTITADESTSTAYMELSSLRSEDTAVYYCAREVRMIFDYWGQGTLVTVSSASTKGPSVFPLAPSSKSTSGGTAALGCLVKDYFPCPVTVSWNSGALTSGVHTFPAVLQSSGLYSLSSVVTVPSSSLGTQTYICNVNHKPSNTKVDKRV[in this place human IgG1 Fc with S375C (EU numbers)]
light: DIQMTQSPSSLSASVGDRVTITCRASQSISSYLAWYQQKPGKAPKLLIYAASSLQSGVPSRFSGSGSGTDFTLTISSLQPEDFATYYCQQSYDYYTFGQGTKVEIKRTVAAPSVFIFPPSDEQLKSGTASVVCLLNNFYPREAKVQWKVDNALQSGNSQESVTEQDSKDSTYSLSSTLTLSKADYEKHKVYACEVTHQGLSSPVTKSFNRGEC

Assays:
Assay type in all cases: cell-based
MP41 = assay: Resazurin-based viability assay, MP41 cells; settings: 96 or 120 hours, Table 9
Procedure: (§1) Following drug treatment for 96 or 120 hours, cell viability and proliferation were determined using a resazurin-based viability assay. Briefly, cells were incubated with a resazurin-based solution and color change was detected by absorbance with a spectrophotometer and used as a readout of cell viability. Data presented as mean of 3 independent replicates and relative to PBS-treated cells (control).

92.1 uveal melanoma = assay: Resazurin-based viability assay, 92.1 uveal melanoma cells; settings: 96 or 120 hours, Table 9
Procedure: as §1
as §1, with “(control) (FIG. 6).” for “(control).”
Following drug treatment for 96 or 120 hours, cell viability and proliferation were determined using a resazurin-based viability assay. Data presented as mean of 3 independent replicates and relative to PBS-treated cells (control) (FIG. 8).
as §1

92.1 cells = assay: Annexin V flow cytometry apoptosis assay, 92.1 cells; settings: FIG. 7
Procedure: (§2) 92.1 and MIAPACA cells were seeded in 96-well plates (5000 cells per well) and treated with increasing concentrations of Compound (A1), Compound (A2), and a fixed dose of Staurosporine (100 nM, positive control) as indicated. Following drug treatment for 96, cells were subjected to fluorescence-activated flow cytometry using an Annexin V antibody conjugated to a fluorescent dye. Data presented as mean of 3 independent replicates.
as §2, with “92.1” for “92.1 and MIAPACA”, “3207-(B1) (Isotype control), G4-(B1),” for “Compound (A2),”, “G1-(B1)” for “a fixed dose of Staurosporine (100 nM, positive control)”

Row | Molecule | GI50 (MP41) [nM] | GI50 (92.1 uveal melanoma) [nM] | apoptosis (Annexin V) (92.1 cells)
1 | B1 | 0.582 | 0.85 | 
2 | B2 | 0.654 | 0.811 | 
3 | B3 |  |  | induced apoptosis in 92.1 cells in a dose-dependent manner
